Experimental data taken from the supplement of paper PMC3334620.
Over roughly 33,000 sequences, “E-score (-0.5 to 0.5)” has its median near -0.043; the highest 2% begin near 0.37. The list shows a part of the results.

biological target: T1, Upc2 (UniProt Q12151); experiment: PBM E-score (8-mer binding enrichment) (E-score (-0.5 to 0.5)); higher = stronger / more preferred TF binding; most listed sequences are background and not binding sites; settings: protein concentration: 200 nM; construct: GST-full length
T1 sequence: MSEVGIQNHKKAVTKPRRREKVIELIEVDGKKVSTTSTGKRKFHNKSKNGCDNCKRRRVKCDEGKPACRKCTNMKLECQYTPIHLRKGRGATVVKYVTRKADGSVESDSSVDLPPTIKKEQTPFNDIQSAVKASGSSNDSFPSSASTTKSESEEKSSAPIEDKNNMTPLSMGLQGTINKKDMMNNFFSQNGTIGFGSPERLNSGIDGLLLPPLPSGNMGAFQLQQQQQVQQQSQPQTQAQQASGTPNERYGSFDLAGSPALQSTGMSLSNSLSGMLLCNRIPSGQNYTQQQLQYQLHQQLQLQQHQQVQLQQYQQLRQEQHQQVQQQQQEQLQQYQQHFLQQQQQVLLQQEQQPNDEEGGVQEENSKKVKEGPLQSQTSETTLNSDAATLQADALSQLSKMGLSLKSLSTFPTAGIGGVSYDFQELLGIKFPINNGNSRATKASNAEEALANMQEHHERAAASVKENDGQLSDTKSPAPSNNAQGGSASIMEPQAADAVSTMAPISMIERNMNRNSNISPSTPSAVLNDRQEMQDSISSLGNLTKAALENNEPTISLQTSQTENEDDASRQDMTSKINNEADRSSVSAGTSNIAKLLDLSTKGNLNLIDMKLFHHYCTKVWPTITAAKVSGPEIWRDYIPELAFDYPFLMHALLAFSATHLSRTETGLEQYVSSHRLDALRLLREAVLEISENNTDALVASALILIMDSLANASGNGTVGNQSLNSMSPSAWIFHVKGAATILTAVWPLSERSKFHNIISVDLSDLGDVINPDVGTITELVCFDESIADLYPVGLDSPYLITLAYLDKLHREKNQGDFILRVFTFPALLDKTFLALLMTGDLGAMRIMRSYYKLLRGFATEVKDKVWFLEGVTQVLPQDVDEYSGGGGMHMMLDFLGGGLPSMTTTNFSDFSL
Summary of the method: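 Yeast transcription factors, full-length or as DNA-binding domains, were expressed with a GST tag using PURExpress in vitro transcription/translation. At about 100-200 nM they were applied to universal all-10-mer Agilent arrays, double-stranded by primer extension on fresh or once-stripped slides. Fluorescent anti-GST detected bound protein, and masliner normalised the scans. E-scores for ungapped eight-base words, pooled with reverse complements, came from the Universal PBM Analysis Suite.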

| Sequence | PBM E-score |
| --- | --- |
| AACGAGAT | 0.417 |
| AGGCCCTC | -0.0342 |
| CCAAGTAC | 0.17 |
| AGAACGTC | -0.066 |
| GATTCTCA | -0.16 |
| CAGCCTTC | -0.158 |
| GTACTGGA | 0.167 |
| ACGTTGGA | 0.0887 |
| AGTCCCGC | -0.286 |
| GAACGTAA | 0.228 |
| CCCTAACA | -0.0595 |
| AAGCTGTC | 0.00604 |
| GAGTCTGC | -0.106 |
| AATCGGGT | 0.0594 |
| ACAACACC | 0.0369 |
| CTTAAAAC | 0.09 |
| CATTAAAG | -0.155 |
| CGCCGGCG | -0.0809 |
| CGCTAGAC | -0.0752 |
| ACATAGGC | -0.126 |
| CCGATGTA | -0.113 |
| CTTCTACC | -0.195 |
| ATAGCCAC | 0.0332 |
| TATAGAAA | 0.0668 |
| AAAGTACC | 0.0378 |

| Sequence | PBM E-score |
| --- | --- |
| AGACCGTC | 0.0749 |
| CCTCCGCG | -0.226 |
| GTTCGCAA | 0.245 |
| AATATCAG | -0.0672 |
| ACTATAGT | 0.0664 |
| CTGCGGGC | -0.1 |
| CTGCGGCC | 0.0579 |
| GTCTCGCA | 0.0886 |
| GAAGTACC | 0.114 |
| GGCCCCCC | -0.32 |
| GAAATAGA | 0.0708 |
| CAGTCGTA | 0.416 |
| AAAGTTTA | 0.0533 |
| TAATTACA | -0.0323 |
| CGGGCGCA | -0.0627 |
| GATGAAAC | 0.124 |
| CAGAAACG | 0.31 |
| GCGTCACC | -0.0201 |
| CTGAAATA | -0.141 |
| AACCTTCC | -0.104 |
| ATCGAAAA | 0.137 |
| ATCCAAAA | -0.237 |
| GCTTCAGA | -0.232 |
| CCATAAGA | -0.126 |
| CTCATGAG | -0.0708 |

| Sequence | PBM E-score |
| --- | --- |
| GAACTAGC | -0.0289 |
| AAGGCCTG | -0.131 |
| AGCGGGGC | 0.072 |
| AGCGAATG | 0.177 |
| ACCATACG | 0.399 |
| GGTTTACA | -0.0166 |
| AAACATGC | 0.0746 |
| AGTAACGC | -0.125 |
| ATTAGCTG | -0.0187 |
| AACGTTTC | 0.172 |
| CAGTAAAG | -0.149 |
| GGACGACA | -0.266 |
| CGCAGAAA | -0.101 |
| GGTAGTGA | -0.184 |
| AATGAGAG | -0.196 |
| AACACTGT | -0.037 |
| ATTGGCCC | -0.354 |
| CCGCGGAC | -0.334 |
| AACTTAAA | 0.0618 |
| ATACTACA | 0.0186 |
| CACCAGCG | -0.0473 |
| AAATTTCG | 0.205 |
| AGCAGCCT | -0.108 |
| CCGTAAAA | 0.374 |
| GGGTAAAA | -0.00698 |

| Sequence | PBM E-score |
| --- | --- |
| GACGGAAA | 0.0904 |
| CTTGCCCA | -0.115 |
| AGTCAGTG | -0.122 |
| AGGAAACC | -0.079 |
| ACACGGGG | -0.0346 |
| CACCAACG | 0.029 |
| AAAGCTAC | -0.074 |
| CTCCTCTA | -0.18 |
| TCGTCTCA | 0.119 |
| GCATTCGA | 0.0425 |
| CCCCCGCG | -0.0395 |
| CAGCAAAA | 0.0394 |
| CTCTTACC | 0.174 |
| CAGTGGTA | -0.0555 |
| CCCCGAAC | 0.107 |
| AAGACAGT | -0.202 |
| AGTAGAAG | -0.15 |
| ACAGGGGC | -0.131 |
| ACTAGGAT | 0.0285 |
| CCCGTACC | 0.383 |
| GCACCCAC | 0.0871 |
| AATCTGGG | -0.202 |
| ATAAGCGG | -0.0234 |
| AAGGGGAA | -0.236 |
| AGCTAGGA | -0.232 |

| Sequence | PBM E-score |
| --- | --- |
| AACAGACT | -0.126 |
| GTGGATTA | -0.149 |
| AGCAGGAC | -0.0905 |
| CACTCAGA | -0.0962 |
| AAACTGAG | -0.0946 |
| AACGATCA | 0.379 |
| CAGTTAGC | -0.269 |
| GTGGCCGA | -0.162 |
| AAACTCGT | 0.327 |
| CCCTTCAA | -0.107 |
| ACTCGAGC | -0.0784 |
| TAGGAGAA | -0.184 |
| AAATCGGT | 0.0318 |
| AGTATTTC | -0.0348 |
| GATTCTCC | -0.104 |
| TATGTGGA | 0.0189 |
| ATGACCGG | -0.124 |
| CCCCTGAC | -0.288 |
| CAAGTACC | 0.0185 |
| ACGGAGTG | 0.243 |
| AGCGCCAT | -0.167 |
| AGATCCCT | -0.0228 |
| AACTCTAG | -0.0752 |
| AGGTCGGC | -0.241 |
| CTCCTCGC | 0.0295 |

| Sequence | PBM E-score |
| --- | --- |
| AGCCGCTC | 0.0179 |
| ATATGCGG | 0.112 |
| CTGCTAAC | -0.228 |
| ACCACACC | -0.185 |
| AAGGAGGT | -0.0817 |
| GGGACCCC | -0.292 |
| AGCCGCTG | -0.194 |
| ACCCGTGA | -0.0228 |
| CACCTTCA | -0.254 |
| CCTGTCGA | -0.205 |
| CTGGTAAC | 0.0344 |
| ACCATCCC | -0.222 |
| CTTCCCTA | -0.306 |
| ACTCCAAA | -0.141 |
| AGTTGCCA | -0.182 |
| TGCGAACA | 0.0931 |
| GGGGAAGA | -0.193 |
| ATCGCTAG | -0.0468 |
| AAAATGAG | -0.162 |
| CACAGGGG | -0.0559 |
| CACTGTGC | -0.118 |
| AATGACGG | -0.163 |
| ACATTGAG | -0.235 |
| GACTTAGA | 0.0575 |
| TTACATAA | 0.0703 |

| Sequence | PBM E-score |
| --- | --- |
| CACCCTTC | -0.0111 |
| TCCGCGGA | -0.0509 |
| CAACAAAA | 0.0632 |
| CTCCGGAG | -0.132 |
| ACTCTATG | -0.0145 |
| ACGGTCAG | -0.0706 |
| AGGAAACG | 0.289 |
| CCCGTAAC | 0.248 |
| TGAGGCAA | 0.00813 |
| CACTTGCA | -0.216 |
| CAAGGCGA | -0.117 |
| GGTGAGAA | -0.233 |
| ACTCGATC | -0.0825 |
| ACTGTGAA | 0.062 |
| ATGCTATC | 0.0893 |
| CTAAGTGA | -0.0744 |
| CAGTTACG | 0.161 |
| TCCAGAAA | -0.147 |
| CGACCCAA | 0.128 |
| GAATTGTC | -0.144 |
| ATCTGAGG | -0.195 |
| CTCCCGCC | -0.238 |
